# Some of the results follow.
# B1: PhoQ; a variant is named by its letters at X, in order, P23837 (parent)
# chain: MKKLLRLFFPLSLRVRFLLATAAVVLVLSLAYGMVALIGYSVSFDKTTFRLLRGESNLFYTLAKWENNKLHVELPENIDKQSPTMTLIYDENGQLLWAQRDVPWLMKMIQPDWLKSNGFHEIEADVNDTSLLLSGDHSIQQQLQEVREDDDDAEMTHSVAVNVYPATSRMPKLTIVVVDTIPVELKSSYMVWSWFIYVLSANLLLVIPLLWVAAWWSLRPIEALAKEVRELEEHNRELLNPATTRELTSLVRNLNRLLKSERERYDKYRTTLTDLTHSLKTPLXXLQXXLRSLRSEKMSVSDAEPVMLEQISRISQQIGYYLHRASMRGGTLLSRELHPVAPLLDNLTSALNKVYQRKGVNISLDISPEISFVGEQNDFVEVMGNVLDNACKYCLEFVEISARQTDEHLYIVVEDDGPGIPLSKREVIFDRGQRVDTLRPGQGVGLAVAREITEQYEGKIVAGESMLGGARMEVIFGRQHSAPKDE
# Variants of: B1
# Test: enrichment ratio after two sorts for PhoP signalling (ratio (wild type AVST 3.29)); higher = more functional
# Conditions: with PhoP (E. coli)
row,Variant,enrichment ratio
1,KYAP,≤ 0.25
2,FDYH,≤ 0.25
3,TTKG,≤ 0.25
4,HPER,≤ 0.25
5,RPDY,≤ 0.25
6,NNIN,≤ 0.25
7,LSHG,≤ 0.25
8,RWRC,≤ 0.25
9,APYR,≤ 0.25
10,RRMI,≤ 0.25
11,LILE,≤ 0.25
12,YTRP,≤ 0.25
13,PKAF,≤ 0.25
14,KFFR,≤ 0.25
15,WGGW,≤ 0.25
16,FYEN,≤ 0.25
17,IIRG,≤ 0.25
18,GFGV,≤ 0.25
19,VSVD,0.654
20,QGWV,18.5
21,TKLD,3.39
22,FYMP,≤ 0.25
23,TYLC,2.2
24,PDWC,≤ 0.25
25,GMFQ,≤ 0.25

row,Variant,enrichment ratio
1,MHKD,≤ 0.25
2,EYRQ,≤ 0.25
3,PPDL,≤ 0.25
4,GPIH,≤ 0.25
5,IFFA,≤ 0.25
6,EDVK,≤ 0.25
7,LSFP,≤ 0.25
8,HPEA,≤ 0.25
9,QKQH,≤ 0.25
10,FKVA,≤ 0.25
11,NMEW,≤ 0.25
12,VAAK,≤ 0.25
13,RKKE,≤ 0.25
14,ALRK,≤ 0.25
15,RFRQ,≤ 0.25
16,CLYY,≤ 0.25
17,ELWP,≤ 0.25
18,DETW,≤ 0.25
19,DWWK,≤ 0.25
20,ECEW,≤ 0.25
21,EITH,≤ 0.25
22,NNNS,≤ 0.25
23,HFFP,≤ 0.25
24,FTED,≤ 0.25
25,FWGG,≤ 0.25

row,Variant,enrichment ratio
1,FECE,≤ 0.25
2,RVFV,≤ 0.25
3,PFLV,≤ 0.25
4,SWRE,≤ 0.25
5,IVMV,≤ 0.25
6,FPLC,≤ 0.25
7,FAIT,≤ 0.25
8,AMGR,≤ 0.25
9,DDIA,≤ 0.25
10,HTMF,0.694
11,FYRP,≤ 0.25
12,VYKP,≤ 0.25
13,PCQE,≤ 0.25
14,AMKY,≤ 0.25
15,RRAN,≤ 0.25
16,SWKQ,≤ 0.25
17,MMCD,≤ 0.25
18,WPYK,≤ 0.25
19,HPQF,≤ 0.25
20,VLSC,≤ 0.25
21,NNYH,≤ 0.25
22,WYPA,≤ 0.25
23,EVSA,≤ 0.25
24,SHYE,≤ 0.25
25,MMIL,≤ 0.25

row,Variant,enrichment ratio
1,YNIW,≤ 0.25
2,WEIA,≤ 0.25
3,AKDI,≤ 0.25
4,SKFP,≤ 0.25
5,QFPE,≤ 0.25
6,VHPW,≤ 0.25
7,GEVR,0.326
8,RWRH,1.19
9,TADM,2.62
10,KPFV,≤ 0.25
11,QMPW,≤ 0.25
12,TWFH,≤ 0.25
13,GDCV,1.12
14,IRWC,≤ 0.25
15,AAFF,≤ 0.25
16,PWGG,≤ 0.25
17,DFKT,≤ 0.25
18,FYHK,≤ 0.25
19,QWLI,≤ 0.25
20,MYWN,≤ 0.25
21,WGTG,1.13
22,LTQC,≤ 0.25
23,MAIW,≤ 0.25
24,QMIA,≤ 0.25
25,HEAS,≤ 0.25

row,Variant,enrichment ratio
1,DFSF,≤ 0.25
2,CLQP,≤ 0.25
3,TWCC,≤ 0.25
4,EKEL,≤ 0.25
5,NYPM,≤ 0.25
6,INHS,≤ 0.25
7,WQYC,≤ 0.25
8,YRSI,≤ 0.25
9,DWKV,≤ 0.25
10,FSQF,≤ 0.25
11,IALI,9.02
12,GIDR,≤ 0.25
13,HRMK,≤ 0.25
14,LHCA,≤ 0.25
15,IKLF,≤ 0.25
16,YKHY,≤ 0.25
17,KTVP,≤ 0.25
18,IFWM,≤ 0.25
19,LTSN,≤ 0.25
20,TQVH,8.69
21,VHPT,≤ 0.25
22,TFAG,2.03
23,PARK,≤ 0.25
24,EELS,≤ 0.25
25,KNYW,≤ 0.25

row,Variant,enrichment ratio
1,FYHY,≤ 0.25
2,HSPE,≤ 0.25
3,VWHP,≤ 0.25
4,HEFF,≤ 0.25
5,FEDP,≤ 0.25
6,YMTV,≤ 0.25
7,GIPG,≤ 0.25
8,VICV,≤ 0.25
9,TNNQ,≤ 0.25
10,YACI,0.325
11,VATE,≤ 0.25
12,QDGT,≤ 0.25
13,FSWK,≤ 0.25
14,PLSP,≤ 0.25
15,FLFP,≤ 0.25
16,FSNK,≤ 0.25
17,TKPN,≤ 0.25
18,AGGR,≤ 0.25
19,MELI,6.46
20,YYAA,≤ 0.25
21,IRNY,≤ 0.25
22,HNSL,≤ 0.25
23,ARPA,≤ 0.25
24,QQQS,≤ 0.25
25,RACC,≤ 0.25

row,Variant,enrichment ratio
1,WLQP,≤ 0.25
2,VCSQ,≤ 0.25
3,GALS,5.05
4,KHRD,≤ 0.25
5,GTQK,≤ 0.25
6,SFVM,≤ 0.25
7,SGQT,7.49
8,HWYG,≤ 0.25
9,WACI,≤ 0.25
10,FWDW,≤ 0.25
11,QTPL,≤ 0.25
12,KHFW,≤ 0.25
13,VVVC,≤ 0.25
14,PTHR,≤ 0.25
15,TSAQ,19.6
16,WMCI,≤ 0.25
17,YRPI,≤ 0.25
18,QVLW,≤ 0.25
19,QMMV,≤ 0.25
20,MTDQ,≤ 0.25
21,YCTS,≤ 0.25
22,NLPN,≤ 0.25
23,IRLR,≤ 0.25
24,LSDD,≤ 0.25
25,IKPC,≤ 0.25

row,Variant,enrichment ratio
1,LGFW,≤ 0.25
2,KACE,≤ 0.25
3,EPVT,≤ 0.25
4,WNYC,≤ 0.25
5,DDFY,≤ 0.25
6,PMHR,≤ 0.25
7,IAIT,≤ 0.25
8,AMEF,≤ 0.25
9,HDHK,≤ 0.25
10,EICA,≤ 0.25
11,QTDH,29.3
12,LKWA,≤ 0.25
13,AVYL,≤ 0.25
14,YDCG,≤ 0.25
15,FGYH,≤ 0.25
16,FISK,≤ 0.25
17,GGHR,≤ 0.25
18,FMLA,≤ 0.25
19,RDAQ,≤ 0.25
20,HGRK,≤ 0.25

# — a collection of fitness landscapes (doi:10.1126/science.1257360)
